Measurements published in PubChem BioAssay AID1460 (National Center for Advancing Translational Sciences (NCATS), 2008).
Screen size: about 270,000 compounds; about 5,800 (2.1%) were called active. The inconclusive results got no clear call from the source; some entries with a clear call stand among them for comparison. The call rests on the fitted dose curve; in most records, active means well fitted inhibition curve with a large enough effect; inconclusive means small, poorly fitted or top-dose-only effect; inactive means flat fitted curve, though single readings scatter. Where the call is inconclusive, the potency comes from a doubtful curve fit.

target: Microtubule-associated protein tau (Homo sapiens) (UniProt P10636); assay: qHTS for Inhibitors of Tau Fibril Formation, Thioflavin T Binding; conditions: recombinant tau K18 P301L, heparin-induced fibrillization, ThT fluorescence; series mostly up to 57.4 µM; activity, negative = inhibition: at the top concentration; further: nearly all actives have a fitted effect of over 55% in size
UniProt P10636, sequence (P10636 whole entry, looked up): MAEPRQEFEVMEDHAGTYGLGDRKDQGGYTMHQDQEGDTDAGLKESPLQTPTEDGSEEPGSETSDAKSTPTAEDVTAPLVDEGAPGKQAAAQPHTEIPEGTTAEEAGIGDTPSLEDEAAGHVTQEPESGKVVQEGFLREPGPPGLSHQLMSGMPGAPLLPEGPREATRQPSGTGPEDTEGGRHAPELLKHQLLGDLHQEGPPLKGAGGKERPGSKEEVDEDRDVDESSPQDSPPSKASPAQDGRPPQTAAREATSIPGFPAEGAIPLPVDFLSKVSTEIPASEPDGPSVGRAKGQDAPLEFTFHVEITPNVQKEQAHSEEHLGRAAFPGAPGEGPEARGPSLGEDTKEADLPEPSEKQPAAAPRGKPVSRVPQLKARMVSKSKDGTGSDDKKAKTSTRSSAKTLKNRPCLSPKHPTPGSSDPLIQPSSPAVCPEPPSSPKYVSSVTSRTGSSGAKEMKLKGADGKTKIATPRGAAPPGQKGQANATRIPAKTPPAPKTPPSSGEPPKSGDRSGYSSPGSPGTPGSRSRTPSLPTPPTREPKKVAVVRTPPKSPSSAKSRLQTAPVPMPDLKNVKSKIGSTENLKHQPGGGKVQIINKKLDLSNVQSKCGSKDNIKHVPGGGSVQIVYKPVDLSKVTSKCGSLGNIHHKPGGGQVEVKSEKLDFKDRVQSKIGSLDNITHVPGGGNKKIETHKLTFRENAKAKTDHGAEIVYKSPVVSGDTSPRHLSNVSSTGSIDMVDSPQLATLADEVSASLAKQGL
Method in brief: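 Fibril formation assay: tau K18 P301L at 15 uM with trace Alexa 594 label, heparin inducer 20 uM, pH 7 sodium acetate buffer, 37 C for 6 hr; endpoint ThT signal.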
On the % scale 0 is the no-effect control and ±100 the full control effect; potency means the concentration at half of the fitted maximal effect; tags describe the fitted curve by direction and shape.

SMILES | Potency | activity, negative = inhibition
O=C(CCc1nc2ccccc2[nH]1)Nc1ccc2c(c1)OCO2 | inconclusive: 20 µM [inhibitor, partial curve] | –
CCOc1cc(-c2nc(C)c(C(C)=O)n2O)ccc1OCC(=O)Nc1cccc(C)c1 | inconclusive: 15.8 µM [inhibitor, partial curve] | –
O=c1c[n+]([O-])c2ccccc2n1OCc1c(F)cccc1F | – | inactive: -16.4%
O=C(c1ccc(S(=O)(=O)c2ccccc2Cl)c([N+](=O)[O-])c1)N1CCCCCC1 | – | inactive: -12.6%
CCOC(=O)c1sc(NC(=O)CSc2nc3ccccc3s2)c(C(=O)OCC)c1C | – | inactive: -0.169%
CC1=C(CCC(=O)O)c2cc3nc(cc4[nH]c(cc5[nH]c(cc1n2)c(C)c5C(C)O)c(C)c4C(C)O)C(C)=C3CCC(=O)O (stereo not given) | inconclusive: 14.1 µM [inhibitor, partial curve] | –
CC(=O)Nc1cccc(-c2nc3ccccc3s2)c1 | – | inactive: -0.278%
Cc1ccc(-n2[nH]c(C)c(C=Nc3ccc(S(=O)(=O)Nc4nccs4)cc3)c2=O)cc1C | inconclusive: 28.2 µM [inhibitor, single point] | –
COc1ccc(/C=C2\CN(Cc3ccccc3)C/C(=C\c3ccc(OC)cc3OC)C2=O)c(OC)c1 | inconclusive: 14.1 µM [inhibitor, partial curve] | –
COc1ccc(NC(=O)C2CCCN(S(=O)(=O)c3ccc4c(c3)CCCC(=O)N4)C2)cc1OC (stereo not given) | – | inactive: -7.07%
Cc1ccc2c(=O)cc(C(=O)Nc3ccc(S(=O)(=O)Nc4nc(C)cc(C)n4)cc3)oc2c1 | inconclusive: 1.12 µM [inhibitor, partial curve] | –
CC(C(=O)O)N1C(=O)/C(=C/c2cccn2C)SC1=S (stereo not given) | active: 17.8 µM | –
O=C1/C(=C/c2cccc(O)c2)SC(=S)N1CC1CCCO1 (stereo not given) | – | inactive: -11.5%
Cn1cccc1Cc1nnc(SCC(=O)Nc2nccs2)n1CCc1ccccc1 | – | inactive: -18.6%
CCOCCn1c(CN2CCN(c3cccc(Cl)c3)CC2)nc2c1c(=O)n(C)c(=O)n2C | inconclusive: 20 µM [inhibitor, partial curve] | –
COc1cc(CNCCSc2nnnn2C)cc(Br)c1OCc1ccc(F)cc1 | inconclusive: 25.1 µM [inhibitor, single point] | –
CN(CCc1ccccn1)C1CC(=O)N(c2ccc(Cl)cc2)C1=O (stereo not given) | inconclusive: 25.1 µM [inhibitor, single point] | –
COc1ccccc1NC(=O)CCN1CCN(C)CC1 | – | inactive: 13.3%
COc1ccc2c(c1)O[C@@H](c1ccc3c(c1)OCO3)[C@H](OC(=O)Nc1ccc(C)c(Br)c1)C2=O | – | inactive: -6.73%
COc1ccc(S(=O)(=O)NCC(c2ccc(N(C)C)cc2)N2CCc3ccccc32)cc1 (stereo not given) | inconclusive: 15.8 µM [inhibitor, partial curve] | –
Cc1ccc(N2C(=O)NC(NS(=O)(=O)c3ccc(Cl)cc3)(C(F)(F)F)C2=O)cc1C (stereo not given) | – | inactive: 2.75%
CC/C=C\C[C@H]1C(=O)CC[C@@H]1CC(=O)O | – | inactive: -5.39%
Cc1c([N+](=O)[O-])cc(C(=O)Oc2ccc(Br)cc2C(=S)N2CCCCC2)cc1[N+](=O)[O-] | inconclusive: 17.8 µM [inhibitor, partial curve] | –

SMILES | Potency | activity, negative = inhibition
CSc1ccccc1NC(=O)Nc1cccc(Cl)c1C | inconclusive: 4.47 µM [inhibitor, partial curve] | –
CCCC(=O)N1CCN(c2ccc(NC(=O)c3ccc(Br)o3)cc2)CC1 | inconclusive: 4.47 µM [inhibitor, partial curve] | –
Cc1nn(-c2ccccc2)c(Cl)c1C1C(C#N)=C(N)Oc2c1c(C)nn2-c1ccccc1 (stereo not given) | inconclusive: 28.2 µM [inhibitor, partial curve] | –
CCCCC(=O)OC1=C(C(C)=O)N(Cc2ccccc2)S(=O)(=O)c2ccccc21 | inconclusive: 28.2 µM [inhibitor, single point] | –
Cc1cc(/C=C(/C#N)c2cccc(F)c2)c(C)n1-c1cccnc1 | inconclusive: 14.1 µM [inhibitor, partial curve] | –
COC(OC)c1ccc(C#N)c(=O)[nH]1 | – | inactive: -2.42%
O=C(Cn1nc(-c2ccccc2)nc(Cc2ccccc2)c1=O)Nc1ccccc1 | – | inactive: 5.69%
Cc1ccn2c(Nc3ccc(F)cc3)c(-c3ccccn3)nc2c1 | inconclusive: 10 µM [inhibitor, partial curve, poor fit] | –
Cc1ccc(C(C)NC(=O)/C(C#N)=C\c2c(C)[nH]c3ccccc23)cc1 (stereo not given) | – | inactive: -15.7%
COc1ccc(OC)c(Nc2ncnc3c2cnn3-c2cccc(Cl)c2)c1 | inconclusive: 1.78 µM [inhibitor, full curve] | –
CC(/C=N\NC(=O)c1cc(C)oc1C)=C\c1ccccc1 | inconclusive: 20 µM [inhibitor, partial curve, poor fit] | –
COc1cc(-c2nnc(COC(=O)c3cc(C)nc4ccc(C)cc34)o2)cc(OC)c1OC | inconclusive: 17.8 µM [inhibitor, partial curve] | –
O=C(COC(=O)C1CCCCC1)Nc1ccc(N2CCCCC2)cc1 | inconclusive: 17.8 µM [inhibitor, partial curve] | –
O=C1N/C(=N/N=C/c2ccco2)SC1Cc1ccccc1 (stereo not given) | – | inactive: 0.89%
CNC(=S)NCc1ccc2[nH]c3c(c2c1)CCCC3 | inconclusive: 15.8 µM [inhibitor, partial curve] | –
Cc1ccc(N(CC(=O)N/N=C/c2cccc(Br)c2)S(C)(=O)=O)cc1 | – | inactive: 6.99%
Oc1ccc(N2CCN(C(=S)NCc3ccccc3)CC2)cc1 | inconclusive: 20 µM [inhibitor, partial curve] | –
CCN1CCCC1CN(Cc1cc2ccc(C)cc2[nH]c1=O)C(=S)Nc1ccc(OC)cc1OC (stereo not given) | inconclusive: 39.8 µM [inhibitor, single point] | –
C=CCN(CC=C)C(=S)Nc1ccc2nsnc2c1 | inconclusive: 35.5 µM [inhibitor, single point] | –
Nc1ccc2nc(SCC(=O)Nc3ccc(N4CCOCC4)c(Cl)c3)sc2c1 | inconclusive: 10 µM [inhibitor, partial curve] | –
Cc1nc(-n2nc(C)c(Cc3ccc4c(c3)OCO4)c2C)sc1C(=O)Nc1cccc(Cl)c1 | – | inactive: 10.7%
CCN1CCSc2ccc(C(=O)Nc3ccc(NC(C)=O)cc3)cc21 | inconclusive: 3.55 µM [inhibitor, partial curve, poor fit] | –
